The antibiotic and cytotoxicity screens of Wong et al. (2023)
The other results are listed elsewhere or left out.

Legend:
HSkMC = human skeletal muscle cells; assay: cytotoxicity call (relative viability < 0.9); conditions: 10 µM
HepG2 = assay: cytotoxicity call (relative viability < 0.9); conditions: 10 µM
S. aureus RN4220 = assay: growth inhibition call (relative growth <= 0.2); conditions: 50 µM

SMILES | cytotoxicity call (HSkMC) | cytotoxicity call (HepG2) | growth inhibition call (S. aureus RN4220)
O=C(C[C@@H]1CC[C@H]2[C@@H](COC[C@@H](O)CN2Cc2ccccc2F)O1)N[C@@H]1CCN(Cc2ccccc2)C1 | inactive | inactive | inactive
CC(C)NC(=O)N(C)C[C@H]1Oc2ncc(-c3ccc(C(=O)N(C)C)cc3)cc2C(=O)N([C@H](C)CO)C[C@H]1C | inactive | inactive | inactive
CC(C)CC#Cc1ccc2c(c1)O[C@H](CN(C)C(=O)Cc1ccccn1)[C@@H](C)CN([C@H](C)CO)S2(=O)=O | inactive | inactive | inactive
COc1ccc(NC(=O)Nc2ccc3c(c2)C(=O)N([C@H](C)CO)C[C@@H](C)[C@H](CN(C)Cc2ccc(C(=O)O)cc2)OCCCC[C@H](C)O3)cc1 | inactive | inactive | inactive
N#Cc1nn(-c2ccccc2)c(=O)[nH]c1=O | inactive | inactive | inactive
COc1ccc(COC[C@]23N=C4SCc5ccccc5C(=O)N4[C@H](c4ccccc4O2)[C@H]3COC(=O)c2ccccc2)cc1 | inactive | inactive | inactive
CN1CCN(C(=O)C[C@H]2CC[C@@H](NC(=O)c3ccc4c(c3)OCO4)[C@H](CO)O2)CC1 | inactive | inactive | inactive
CC12CCC3c4ccc(OC(=O)c5ccccc5)cc4CCC3C1CCC2O (stereo not given) | inactive | inactive | inactive
COc1ccc2c3c([nH]c2c1)[C@H](CO)N(C[C@]13CCN(CC1)C(=O)NC(C)C)C(=O)CN1CCOCC1 | inactive | inactive | inactive
C[C@@H]1CCCCO[C@@H](CN(C)Cc2ccc(C(F)(F)F)cc2)[C@@H](C)CN([C@@H](C)CO)C(=O)c2cc(NS(C)(=O)=O)ccc2O1 | inactive | inactive | inactive
CCS(=O)(=O)N1C[C@]2(C1)CN([C@H](CO)c1c2c2ccc(cc2n1C)OC)C(=O)Nc1cccc(c1)F | inactive | inactive | inactive
C[C@@H]1CCCCO[C@H](CN(C)CC2CCCCC2)[C@H](C)CN([C@@H](C)CO)C(=O)c2cc(NS(=O)(=O)c3ccc(Cl)cc3)ccc2O1 | active | active | inactive
C[C@@H]1CN([C@@H](C)CO)C(=O)c2cc(NS(=O)(=O)c3cn(C)cn3)ccc2O[C@@H](C)CCCCO[C@@H]1CN(C)C | inactive | inactive | inactive
C[C@@H]1CN([C@H](C)CO)C(=O)Cc2cc(NS(=O)(=O)c3ccccc3)ccc2O[C@H]1CN(C)S(=O)(=O)c1cccs1 | inactive | inactive | inactive
C[C@@H]1CCCCO[C@@H](CN(C)S(=O)(=O)c2ccc(F)cc2)[C@H](C)CN([C@H](C)CO)C(=O)c2cc(NS(C)(=O)=O)ccc2O1 | inactive | inactive | inactive
C[C@@H]1CCCCO[C@H](CN(C)Cc2ccncc2)[C@H](C)CN([C@H](C)CO)C(=O)c2cc(NC(=O)Nc3ccc(C(F)(F)F)cc3)ccc2O1 | inactive | active | inactive
Cc1noc(C)c1NC(=O)Nc1ccc2c(c1)C(=O)N([C@H](C)CO)C[C@H](C)[C@H](CN(C)Cc1ccc(C(=O)Nc3ccccc3N)cc1)O2 | inactive | inactive | inactive
C[C@@H]1CN([C@@H](C)CO)C(=O)c2cc(NC(=O)Cc3cn(C)c4ccccc34)ccc2O[C@H]1CN(C)C(=O)Nc1cccc2ccccc12 | inactive | inactive | inactive
C[C@@H]1CN([C@H](C)CO)C(=O)Cc2cc(NS(=O)(=O)c3cn(C)cn3)ccc2O[C@H]1CN(C)C(=O)NC1CCCCC1 | inactive | inactive | inactive
C=CCC[C@H](Cc1ccc(F)cc1)C(=O)OC[C@@H](Cc1c[nH]c2ccccc12)NC(=O)[C@H](CC=C)CC(=O)N[C@@H](CO)Cc1ccccc1 | inactive | active | inactive
C[C@H](CO)N1C[C@H](C)[C@H](CN(C)CC2CC2)Oc2cc(C#Cc3cccc(F)c3)ccc2S1(=O)=O | inactive | inactive | inactive
C[C@@H]1CN([C@@H](C)CO)C(=O)c2cccc(NC(=O)Nc3ccccc3)c2O[C@@H]1CN(C)CC1CCCCC1 | inactive | inactive | inactive
C[C@@H]1CN([C@@H](C)CO)C(=O)c2cc(NC(=O)Nc3cccc4ccccc34)ccc2O[C@@H]1CN(C)C(=O)Nc1cccc2ccccc12 | active | inactive | inactive
CC(C)CC#Cc1ccc2c(c1)O[C@@H](CN(C)C(=O)c1ccncc1)[C@@H](C)CN([C@@H](C)CO)S2(=O)=O | inactive | inactive | inactive
O=C(C1=C[C@@H](c2csc3ccccc23)C[C@@H](OCc2ccc(CO)cc2)O1)N1CCN(Cc2ccc3c(c2)OCO3)CC1 | inactive | active | inactive
CC(C)CC#Cc1ccc2c(c1)O[C@@H](CN(C)C(=O)Cc1ccccn1)[C@@H](C)CN([C@H](C)CO)S2(=O)=O | inactive | inactive | inactive
COc1ccccc1S(=O)(=O)N(C)C[C@@H]1OCc2cn(nn2)CCCC(=O)N([C@H](C)CO)C[C@@H]1C | inactive | inactive | inactive
Cc1cc(C(=O)Nc2cccc3c2O[C@H](CN(C)S(=O)(=O)c2ccc(Cl)cc2)[C@@H](C)CN([C@H](C)CO)C3=O)n(C)n1 | inactive | inactive | inactive

SMILES | cytotoxicity call (HSkMC) | cytotoxicity call (HepG2) | growth inhibition call (S. aureus RN4220)
CC(=O)N1CCN(CC(N)=S)CC1 | inactive | inactive | inactive
C[C@@H]1CN([C@@H](C)CO)C(=O)c2cc(NC(=O)Nc3ccccc3)ccc2O[C@@H](C)CCCCO[C@@H]1CN(C)C(=O)Cc1ccccc1 | inactive | inactive | inactive
C[C@H]1CN([C@@H](C)CO)C(=O)CCCn2cc(nn2)CO[C@@H]1CN(C)S(=O)(=O)c1ccc(Cl)cc1 | inactive | inactive | inactive
COc1ccc(S(=O)(=O)Nc2cccc3c2O[C@H](CN(C)Cc2ccncc2)[C@@H](C)CN([C@H](C)CO)C3=O)cc1 | inactive | inactive | inactive
CN(C)CCCNC(=O)C[C@@H]1CC[C@H]2[C@H](COc3ccc(NS(C)(=O)=O)cc3C(=O)N2C)O1 | inactive | inactive | inactive
C[C@H]1CCCCO[C@H](CN(C)Cc2ccc3c(c2)OCO3)[C@@H](C)CN([C@@H](C)CO)C(=O)c2cc(NC(=O)CCC(F)(F)F)ccc2O1 | inactive | inactive | inactive
C[C@H]1CN([C@@H](C)CO)S(=O)(=O)c2ccc(C3=CCCC3)cc2O[C@H]1CN(C)C(=O)Cc1ccncc1 | inactive | inactive | inactive
C[C@H]1CN([C@@H](C)CO)C(=O)c2cc(NS(=O)(=O)c3ccc(F)cc3)ccc2O[C@H]1CN(C)Cc1ccncc1 | inactive | inactive | inactive
Cc1noc(C)c1S(=O)(=O)Nc1ccc2c(c1)C(=O)N([C@@H](C)CO)C[C@@H](C)[C@H](CN(C)S(=O)(=O)c1ccccc1)O2 | inactive | inactive | inactive
NNc1ccc2[nH]c(=O)[nH]c2c1 | inactive | inactive | inactive
CO[C@H]1CN(C)C(=O)c2ccc(NS(C)(=O)=O)cc2OC[C@@H](C)N(C(=O)c2ccc3c(c2)OCO3)C[C@@H]1C | inactive | inactive | inactive
CCCC(=O)Nc1ccc2c(c1)OC[C@H](C)N(Cc1ccc(-c3ccccn3)cc1)C[C@H](C)[C@@H](OC)CN(C)C2=O | inactive | inactive | inactive
C[N+](C)(C)CCCCNC(=O)[C@@H]1C[C@@H]2C(=O)N[C@@H](CCCC[N+](C)(C)C)C(=O)N2[C@@H]1c1ccc(O)cc1 | inactive | inactive | inactive
O=C(CCCCCCCC(=O)NCCO)NCCO | inactive | inactive | inactive
C[C@@H]1CN([C@H](C)CO)C(=O)Cc2cc(NC(=O)Nc3ccccc3)ccc2O[C@@H]1CN(C)Cc1ccc(Cl)c(Cl)c1 | active | active | inactive
C[C@@H]1CCCCO[C@@H](CN(C)S(=O)(=O)c2cn(C)cn2)[C@@H](C)CN([C@@H](C)CO)C(=O)c2cc(NC(=O)CCCN(C)C)ccc2O1 | inactive | inactive | inactive
Cc1n[nH]c(=O)nc1NCCN(C)C | inactive | inactive | inactive
CC(C)C#Cc1ccc2c(c1)O[C@@H](CN(C)C(=O)c1cnccn1)[C@@H](C)CN([C@@H](C)CO)S2(=O)=O | inactive | inactive | inactive
C[C@H](CO)N1C[C@H](C)[C@H](CN(C)S(=O)(=O)c2ccc(C#N)cc2)Oc2ncc(-c3ccc(F)cc3)cc2C1=O | inactive | inactive | inactive
O=C1c2ccccc2[C@@]2(Cc3ccccc3N(Cc3ccccc3)C2=O)[C@H](c2ccc(CO)cc2)N1Cc1ccccc1C(F)(F)F | inactive | inactive | inactive
Cc1ccc(S(=O)(=O)N(C)C[C@@H]2OCCCC[C@H](C)Oc3ccc(NS(C)(=O)=O)cc3C(=O)N([C@@H](C)CO)C[C@@H]2C)cc1 | inactive | inactive | inactive
Cn1cnc(S(=O)(=O)N[C@H]2CC[C@@H](CC(=O)N3CCN(c4ccccc4)CC3)O[C@H]2CO)c1 | inactive | inactive | inactive
Cn1c2c(c(=S)[nH]c1=O)CCC2 | inactive | inactive | inactive
COc1ccc(S(=O)(=O)N(C)C[C@H]2Oc3ccc(NS(=O)(=O)c4ccccc4)cc3C(=O)N([C@H](C)CO)C[C@@H]2C)cc1 | inactive | inactive | inactive
C[C@H](CO)N1C[C@H](C)[C@H](CN(C)CC2CCOCC2)Oc2ncc(C#Cc3ccc(F)cc3)cc2C1=O | inactive | inactive | inactive
C[C@@H]1CN([C@H](C)CO)C(=O)c2cc(NC(=O)Cc3cn(C)c4ccccc34)ccc2O[C@@H]1CN(C)Cc1ccc(-c2ccccc2)cc1 | inactive | inactive | inactive
Cc1ccc(S(=O)(=O)N(C)C[C@@H]2Oc3c(NC(=O)c4cnccn4)cccc3C(=O)N([C@H](C)CO)C[C@H]2C)cc1 | inactive | inactive | inactive
